According to EPA's CvTdb concentration-time database:
This continues a long series; more values of the same kind are listed elsewhere.

Key:
Test in all cases: concentration in plasma after dosing
Rat [1] = conditions: dosed: Oxazepam, 20 mg/kg, iv, Male, F344
Rat [2] = conditions: dosed: Oxazepam, 20 mg/kg, iv, Female, F344
Rat [3] = conditions: dosed: Oxazepam, 400 mg/kg, oral, Female, F344
Rat [4] = conditions: dosed: Oxazepam, 400 mg/kg, oral, Female, F344; remark: listed apart in the source
Rat [5] = conditions: dosed: Oxazepam, 400 mg/kg, oral, Male, F344
Rat [6] = conditions: dosed: Oxazepam, 20 mg/kg, iv, Male, F344; remark: listed apart in the source
Rat [7] = conditions: dosed: Oxazepam, 20 mg/kg, iv, Male, F344; remark: listed apart in the source
Rat [8] = conditions: dosed: Oxazepam, 20 mg/kg, iv, Female, F344; remark: listed apart in the source
Rat [9] = conditions: dosed: Oxazepam, 20 mg/kg, iv, Male, F344; remark: listed apart in the source
Rat [10] = conditions: dosed: Oxazepam, 400 mg/kg, oral, Male, F344; remark: listed apart in the source
Rat [11] = conditions: dosed: Oxazepam, 20 mg/kg, iv, Male, F344; remark: listed apart in the source
Rat [12] = conditions: 2 h; dosed: Oxazepam; 20 mg/kg; iv; Female; F344
Rat [13] = conditions: dosed: Oxazepam, 20 mg/kg, iv, Male, F344; remark: listed apart in the source
Rat [14] = conditions: dosed: Oxazepam, 20 mg/kg, iv, Female, F344; remark: listed apart in the source
Rat [15] = conditions: 1 h; dosed: Oxazepam; 20 mg/kg; iv; Male; F344
Rat [16] = conditions: dosed: Oxazepam, 20 mg/kg, iv, Male, F344; remark: listed apart in the source
Rat [17] = conditions: 2 h; dosed: Oxazepam; 20 mg/kg; iv; Male; F344
Rat [18] = conditions: 1 h; dosed: Oxazepam; 20 mg/kg; iv; Female; F344
Rat [19] = conditions: dosed: Oxazepam, 400 mg/kg, oral, Male, F344; remark: listed apart in the source
Rat [20] = conditions: dosed: Oxazepam, 20 mg/kg, iv, Female, F344; remark: listed apart in the source
Rat [21] = conditions: dosed: Oxazepam, 400 mg/kg, oral, Female, F344; remark: listed apart in the source
Rat [22] = conditions: dosed: Oxazepam, 400 mg/kg, oral, Female, F344; remark: listed apart in the source
Rat [23] = conditions: 2 h; dosed: Oxazepam; 20 mg/kg; iv; Male; F344; remark: listed apart in the source
Rat [24] = conditions: dosed: Oxazepam, 400 mg/kg, oral, Male, F344; remark: listed apart in the source
Rat [25] = conditions: dosed: Oxazepam, 400 mg/kg, oral, Female, F344; remark: listed apart in the source
Rat [26] = conditions: dosed: Oxazepam, 400 mg/kg, oral, Male, F344; remark: listed apart in the source
Rat [27] = conditions: dosed: Oxazepam, 400 mg/kg, oral, Male, F344; remark: listed apart in the source
Rat [28] = conditions: dosed: Oxazepam, 20 mg/kg, iv, Female, F344; remark: listed apart in the source
Rat [29] = conditions: dosed: Oxazepam, 400 mg/kg, oral, Female, F344; remark: listed apart in the source
Rat [30] = conditions: dosed: Oxazepam, 20 mg/kg, iv, Female, F344; remark: listed apart in the source
Rat [31] = conditions: dosed: Oxazepam, 20 mg/kg, iv, Female, F344; remark: listed apart in the source
Rat [32] = conditions: dosed: Oxazepam, 20 mg/kg, iv, Female, F344; remark: listed apart in the source
Rat [33] = conditions: dosed: Oxazepam, F344

O=C1Nc2ccc(Cl)cc2C(c2ccccc2)=NC1O (centres undefined) [Oxazepam]
Conditions | concentration in plasma [ng/mL]
Rat [1], 2 min | 11100
Rat [1], 3 h | 1050
Rat [2], 2 h | 4330
Rat [2], 10 h | 500
Rat [3], 6 h | 5150
Rat [3], 20 min | 1800
Rat [4], 3.5 h | 3550
Rat [4], 26 h | 5340
Rat [5], 6 h | 2950
Rat [5], 20 min | 1370
Rat [6], 2 min | 12800
Rat [6], 3 h | 1360
Rat [7], 0.25 h | 6750
Rat [7], 4 h | 820
Rat [8], 0.25 h | 7170
Rat [8], 4 h | 1800
Rat [9], 1 h | 3170
Rat [9], 8 h | 300
Rat [10], 2 h | 2950
Rat [10], 18 h | 1200
Rat [11], 0.5 h | 5030
Rat [11], 6 h | 300
Rat [13], 0.5 h | 5350
Rat [13], 6 h | 280
Rat [14], 0.25 h | 7860
Rat [14], 4 h | 1150
Rat [16], 0.25 h | 7290
Rat [16], 4 h | 520
Rat [19], 3.5 h | 4230
Rat [19], 26 h | 6680
Rat [20], 1 h | 4840
Rat [20], 8 h | 550
Rat [21], 6 h | 5930
Rat [21], 20 min | 1750
Rat [22], 2 h | 3900
Rat [22], 18 h | 1820
Rat [24], 2 h | 3350
Rat [24], 18 h | 3420
Rat [25], 3.5 h | 4080
Rat [25], 26 h | 1660
Rat [26], 3.5 h | 5210
Rat [26], 26 h | 2670
Rat [27], 6 h | 2650
Rat [27], 20 min | 750
Rat [28], 0.5 h | 3670
Rat [28], 6 h | 480
Rat [29], 2 h | 5570
Rat [29], 18 h | 9340
Rat [30], 2 min | 14700
Rat [30], 3 h | 2540
Rat [31], 2 min | 14800
Rat [31], 3 h | 2550
Rat [32], 4 min | 8850
Rat [32], 6 h | 600

Conditions | concentration in plasma [ng/mL]
Rat [12] | 3620
Rat [15] | 3620
Rat [17] | 860
Rat [18] | 5410
Rat [23] | 1700

concentration in plasma [ng/mL], Rat [33]
Conditions | Female | Male
0.25 h, 20 mg/kg, iv | 8020 | 6110
0.5 h, 20 mg/kg, iv | 6350 | 5200
1 h, 20 mg/kg, iv | 5900 | 4380
2 h, 20 mg/kg, iv | 3920 | 1570
2 h, 400 mg/kg, oral | 4120 | 3250
2 min, 20 mg/kg, iv | 13600 | 10800
3 h, 20 mg/kg, iv | 1640 | 1070
3.5 h, 400 mg/kg, oral | 3430 | 3760
4 h, 20 mg/kg, iv | 1230 | 690
6 h, 20 mg/kg, iv | 1050 | 300
6 h, 400 mg/kg, oral | 5080 | 4930
8 h, 20 mg/kg, iv | – | 310
10 h, 20 mg/kg, iv | 570 | –
18 h, 400 mg/kg, oral | 2100 | 2680
20 min, 400 mg/kg, oral | 1590 | 1260
26 h, 400 mg/kg, oral | 3730 | 3160
